# Assay results from the supplement of paper PMC11417369.
# The list shows a part of the results.
# Tested on: PfAP2-HC AP2 domain (GST-tagged)
# Assay: gcPBM binding intensity (ln(normalized median fluorescence intensity)); higher = stronger DNA binding
# In short: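 In this array assay, P. falciparum DNA-binding domains with a GST tag, expressed in E. coli, were applied for 1 h to primer-extended double-stranded 36-bp intergenic genomic probes and negative controls on an Agilent 4 × 180k array. Bound protein was visualised with Alexa488 anti-GST antibody at 488 nm. Binding intensity is the highest Masliner-normalised natural-log median intensity across replicate spots of either probe orientation.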
row,Sequence,gcPBM binding intensity (ln)
1,GAGAAAGATATATACACACACATAAATATGTACATA [CACACA_site6975],10.5
2,ATACAATAAAATAAGTTTGAATAAAATTAAATATAT [CACACA_negctrl_site877],9.66
3,TCCTTTTTTAAAAGTTGTACATTATTGTTATTTGTT [XGTACX_site4686],9.73
4,TTCCTCTTAATATGTGCACACTAAATTATAACCTAA [CACACA_site5751],9.84
5,GAAGGAAATAATAGTAGTACAAATGGTAAGAAATAT [XGTACX_site5845],10.2
6,TTTACAATATAAAATACACACACACTAACATATATT [CACACA_site9231],10.3
7,TATATAAATGTTATCACACACTCACGTTTGACAAAA [CACACA_site6468],9.71
8,ATTATATTTATGTTGGTGCATTATACATGAAATTTA,9.56
9,AATATAATACAATATTGTACATAATATAAATTAAAA [XGTACX_site4064],9.93
10,TTCATTTTAATTTCCAGTACACATATATATACATAT [XGTACX_site558],9.85
11,ATGTCATAAATGTACGCACACATACATAAACATATA [CACACA_site4530],10.1
12,ATTTATTTCTATAATACACACAAATATCTTAATTAA [CACACA_site7801],9.58
13,GGTAATTATTTTGGTTGTACTCAAATATATAATATT [XGTACX_site291],9.63
14,TATATGTTATATTGGACACACACAATAAACATTATG [CACACA_site8480],10
15,AAACATAAAGAAAAAAAAAATATATATTTATTTATT [GTGCAC_negctrl_site357],9.54
16,ATATATTAACAAAAGGTGCTTTTGGCAAAGTATAAT,9.85
17,TTATTTAAATATTGATGTACTCTCCTTATTATAATA [XGTACX_site1240],9.61
18,ATAAAAATGGTGTTAACACACACATATATATATATA [CACACA_site8089],9.83
19,AAAAATTCTTCCCAAGCATGCGCGCGTAAAATATTT [TGCATGCA_site77],9.56
20,AAATTTTTTATTAGTAGTACGCATAAATATATGTAT [XGTACX_site1934],9.53
21,AAAAAAAAAAGAAAAGGTACACAGAATATATATATA [XGTACX_site6914],9.77
22,AAAAAAATAAGACACACACACAAAAAAATAAAAATA [CACACA_site6357],10.6
23,ATTATGAATTTTAATTGTACATTATTATAGAATGTA [XGTACX_site619],9.41

row,Sequence,gcPBM binding intensity (ln)
1,AGTTATTTTTATATTTCACACACATATACTTTTACA [CACACA_site9357],10.1
2,AATAATTCTTAAAGGTGTACAATATGTATATAAGAA [XGTACX_site595],9.99
3,CATGAATATTTATACATGCACACTAAAATAAAGAAT [CACACA_site2412],9.84
4,GAGGGTATAATAAAAGCACACACAAAGATATAAATA [CACACA_site9087],10.2
5,TATATATATATATACACACACACACCCCAAAGCGTA [CACACA_site64],11.1
6,ACATTTTGTAAAGAATGTACATATATATATATATTC [XGTACX_site8004],9.56
7,AAAAAATGCGACATGTGTACACATATATATATATAT [XGTACX_site1679],10.2
8,GAAAATATTACATACACGCACACATTAATATATTTA [CACACA_site2604],10.3
9,ATATATATATCAAAATGTACAAAAATAGAATTTAAA [XGTACX_site8292],9.7
10,CAGTAGTTTTTATGGGTGCAAAACATATATATAACA,9.67
11,CCTTTCCTAGCACATGCACACAAAAAAAAAAAAAAA [CACACA_site8396],9.51
12,AAAATTAAAATATCACGTACGAAGAAAAAATTAAGA [XGTACX_site6437],9.87
13,TACACCCACCAACACACACACACACTAATAAAAAAA [CACACA_site8060],11.3
14,ATCTTTTTACTTAATACACACACACCCAAAAAAAAA [CACACA_site8221],10.7
15,AAACGGCTATTAAAATGTACATGTAAATATATTAAA [XGTACX_site918],9.73
16,AATACATATGGGTGTACACATTATATATATATATAT [CACACA_site4601],9.84
17,TATATATATATAGATGCATGCAATTACATATAACAA [TGCATGCA_site118],9.94
18,TTGTGTACATATTAAGTGCATATATATATATATATA,10.4
19,GCATATGATGAGCATATAATCATAAGAAAAAAAAAA [CACACA_negctrl_site701],9.47
20,AATAAATAGTAGTAGGTGCTACTATATTATATATAT [GTGCAC_site9452],9.75
21,TATGTAATAATAAACGGTACACTATATTGTATGAAA [XGTACX_site4648],9.79
22,ATTTTCTATATCTTTCAACACACAAATTTTTTTTTC [CACACA_site7918],9.74
